Source: PubChem BioAssay AID602310 (National Center for Advancing Translational Sciences (NCATS), 2012)
Among all 410,000 compounds or so, about 310 (0.076%) were called active. Inconclusive means that the source gave no clear call. Such entries were picked first, then a sample of the others. Calls follow the shape of the dose curve; as a rule, active = well fitted curve in the direction sought with a large enough effect; inconclusive = small, poorly fitted or top-dose-only effect; inactive = flat fitted curve, though single readings scatter. A potency beside an inconclusive call is a rough fit, not a confirmed value.

Target: DNA dC->dU-editing enzyme APOBEC-3G (Homo sapiens) (UniProt Q9HC16)
Assay: qHTS for Inhibitors of Vif-A3G Interactions: qHTS; also: nearly all actives have a fitted effect of over 60% in size;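 as to activity, negative = active: hits raise eYFP signal because A3G escapes Vif-driven loss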
Settings: HeLa A3G-eYFP + Vif (tagged APOBEC3G with the HIV-1 protein that degrades it), YFP fluorescence, overnight; series mostly up to 46.1 µM; activity, negative = active: at the top concentration
Summary of the method: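 Read-out is eYFP fluorescence (Ex 488/Em 500-530) from Vif-expressing HeLa A3G-eYFP cells; more signal means A3G escaped Vif-mediated degradation. Cells plated overnight, compound pinned in, incubated overnight at 37 deg C.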
% is scaled to controls: 0 for no effect and ±100 for the full control effect; potency is read from the fitted curve at half-maximal effect; tags tell the direction and shape of the fitted curve.

Chain of UniProt Q9HC16 (Q9HC16 whole entry, looked up): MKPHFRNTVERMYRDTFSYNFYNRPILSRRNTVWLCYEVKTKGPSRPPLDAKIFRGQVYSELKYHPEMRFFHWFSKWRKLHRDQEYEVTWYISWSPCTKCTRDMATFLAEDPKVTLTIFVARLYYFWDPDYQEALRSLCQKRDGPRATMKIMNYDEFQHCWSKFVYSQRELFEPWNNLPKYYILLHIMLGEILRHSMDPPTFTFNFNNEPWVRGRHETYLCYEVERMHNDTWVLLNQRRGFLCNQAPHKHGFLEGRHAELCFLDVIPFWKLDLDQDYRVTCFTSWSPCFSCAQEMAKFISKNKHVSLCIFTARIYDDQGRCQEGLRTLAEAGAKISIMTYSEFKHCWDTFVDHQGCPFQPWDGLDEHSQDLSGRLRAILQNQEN

Row | Structure (SMILES) | activity, negative = active | Potency
1 | Cc1ccc(C(=O)NC2CCCCCC2)o1 | inactive: -0.788% | 
2 | O=S(=O)(Cc1ncc(C(F)(F)F)cc1Cl)c1ccccc1 |  | inconclusive: 10 µM [inhibitor, partial curve, poor fit]
3 | C=C(C)Cn1c(=O)c2c(nc3n2CCN3c2ccc(F)cc2)n(C)c1=O | inactive: -0.288% | 
4 | CCOc1ccc(C(CN2CCOCC2)C(C)=O)cc1OC (stereo not given) |  | inconclusive: 7.08 µM [inhibitor, partial curve, poor fit]
5 | O=Cc1ccccc1OCCOc1ccccc1C=O |  | inconclusive: 7.94 µM [inhibitor, partial curve]
6 | COc1cc(-c2nc3ccc(C)cn3c2NCc2ccccc2)ccc1SC1CCCCC1 |  | active: 10 µM
7 | CC(C)c1ccccc1NC(=O)c1ccccc1NC(=O)C1CCCCC1 | inactive: 1.68% | 
8 | COc1cc(-c2cc(C(=O)Nc3cc(S(=O)(=O)N4CCOCC4)ccc3O)c3ccccc3n2)cc(OC)c1OC |  | inconclusive: 25.1 µM [inhibitor, single point]
9 | O=C(Oc1cc(=O)oc2ccccc12)c1ccccc1 |  | inconclusive: 7.08 µM [inhibitor, partial curve, poor fit]
10 | O=[N+]([O-])c1c(C(Cl)Cl)nn(-c2ccccc2)c1N1CCCC1 |  | inconclusive: 25.1 µM [inhibitor, partial curve, poor fit]
11 | O=C(COc1ccc2ccccc2c1Br)Nc1ccncc1 |  | inconclusive: 12.6 µM [inhibitor, partial curve]
12 | CCCn1c(NC(=O)c2cccc(C)c2C)nc2ccccc21 |  | inconclusive: 10 µM [inhibitor, partial curve]
13 | Cc1ccc(S(=O)(=O)n2cccc2/C=C/[N+](=O)[O-])cc1 |  | inconclusive: 31.6 µM [inhibitor, single point]
14 | Cc1cc(NC(=O)Nc2nnc(N(C)Cc3ccccc3)s2)ccc1Br |  | active: 12.6 µM
15 | Cc1ccc(O)c(NC(=O)c2cc(-c3ccccc3O)no2)c1 |  | inconclusive: 12.6 µM [inhibitor, partial curve, poor fit]
16 | CCOc1cc2c(cc1O)C(=NO)CC1C2CCC2(C)C(O)CCC12 (stereo not given) | inactive: -46.5% | 
17 | COC(=O)c1[nH]c2c(c1C)C(=O)CC(c1cc(OC)ccc1OC)C2 (stereo not given) |  | inconclusive: 2.82 µM [inhibitor, full curve, poor fit]
18 | COc1ccc(OC)c(N(CC(=O)Nc2cccnc2)S(=O)(=O)c2ccc(C)cc2)c1 |  | inconclusive: 12.6 µM [inhibitor, single point]
19 | CN(C)Cc1c(O)ccc2c1O/C(=C\C=C\c1ccccc1)C2=O | inactive: 5.52% | 
20 | C[n+]1c(/C=C/c2ccc(N)cc2)sc2ccccc21 | inactive: 1.57% | 
